{
  "source": "paper PMC12136788",
  "binders": {"B1": {"name": "chr7:141445308:141445309:+_ENSG00000106028_ENST00000265304|hu_hu|hu_hu_hu_mus_False|68_98 (ssRNA)", "RNA": "GGGAGUUCUACAGUCCGACGAUCUAUGAUUGUUGUUGCUUGUCGCCUCACAUUGUUUUUAUCCAUGUAUUCACCAUAGUCCACUUUCCCUUCCACAAAUAUACGAGCCCCCUUUUUCACAUACUGAUAUGCCACAUCUCUGAGCAACAGAGGAUUGAGCAUCA"}, "B2": {"name": "chr2:179515052:179515053:+_ENSMUSG00000000305_ENSMUST00000000314|mus_hu|mus_mus_mus_hu_False|1_18 (ssRNA)", "RNA": "GGGAGUUCUACAGUCCGACGAUCGCUGUCCCAUGCAGUCACCGUGAACGCCACCUGCUCGGAGGGGACCUGCAGCUCCCGGGUGGCGAAGACUGUCCCAUCUGCCCCAACUUUGAAGUCCAAGCUGUUGGUCUCAUACUGCAUCAACAGAGGAUUGAGCAUCA"}, "B3": {"name": "chr1:220276048:220276049:+_ENSG00000067704_ENST00000302637|hu_hu|hu_hu_hu_mus_True|18_38 (ssRNA)", "RNA": "GGGAGUUCUACAGUCCGACGAUCGCAAAUUGCCUGGUUGGCGGGAAUUGUCCAAGGCUGGGUGGUCCAAACUAAAACGCUAACAGGGGAUGAGGCAUCUAUAAGAGACUCCAACUUUGGAGAAGGCCUCAGGAGGGGGAAUCUCAACAGAGGAUUGAGCAUCA"}, "B4": {"name": "chr16:18151368:18151369:+_ENSMUSG00000043811_ENSMUST00000059589|mus_mus|FALSE|FALSE (ssRNA)", "RNA": "GGGAGUUCUACAGUCCGACGAUCGAGGAGGCGGUCAAGACUGUGCAGGCCACGGAAAGCGUGCUCAGGCACACUGGGGAUACGGUUGCCAUGCAGAAAGAGAUGCGUGAGGUUGCCCAGGUCUCGAAAGGUGUUGUCAGGGAGCAACAGAGGAUUGAGCAUCA"}, "B5": {"name": "18185068_18209478_189_3pUTR_ENSG00000099968_ENST00000399777|human|control|control (ssRNA)", "RNA": "GGGAGUUCUACAGUCCGACGAUCUUCCUCCUCCUCUGACUCAAGACUAAACACAGUGCCCCAGCCACCUUGCUGAAUGAUGUACUCUGCCGAAUAGUCCUCCAGGUAUGUCACGCCAAACUGCAGCAGUGCGCUCAAAGGUUCCAACAGAGGAUUGAGCAUCA"}, "B6": {"name": "chr10:106022761:106022762:+_ENSG00000148834_ENST00000369713|hu_mus|motif|central (ssRNA)", "RNA": "GGGAGUUCUACAGUCCGACGAUCGAAUUCGUUCUCCAACGCUUCCCUUAGGUUCGGAGAGUCUUCCUUUCUCUUCGACCGGACAAAGCUUGCAAUCAAAGGCGGCACCUUAGAGAAUGACUCAAGGGUCAUCUUCUGACGUGCCAACAGAGGAUUGAGCAUCA"}, "B7": {"name": "chr4:103717905:103717906:-_ENSG00000109332_ENST00000394803|hu_mus|motif|central (ssRNA)", "RNA": "GGGAGUUCUACAGUCCGACGAUCUUCAGUGCUAUAUUAAACAGUAUUGGAAGAUAGAUUAACUAAUAGCUCCAAGCCUCCGGACAAUUUAAAUGAAAAUUACAAAAUGUUUUGAGACCCUAUUUUGGAAUACAAAGGGUGUUUCAACAGAGGAUUGAGCAUCA"}, "B8": {"name": "chr7:54825262:54825263:-_ENSG00000132432_ENST00000352861|hu_hu|hu_hu_hu_mus_False|8_108 (ssRNA)", "RNA": "GGGAGUUCUACAGUCCGACGAUCCUGACUUGGCUCAUCCACAAACUGCAUUACCUGAUCCAUGUUUGUUGGAUGGCGGAUUGAGAGCGUAGAGACACGUAGCUCAGGAGAGAACCGAGCCCAACGGCACCGGAACCUGGCAACCAACAGAGGAUUGAGCAUCA"}, "B9": {"name": "chr19:7501953:7501954:-_ENSMUSG00000024758_ENSMUST00000025667|mus_hu|FALSE|FALSE (ssRNA)", "RNA": "GGGAGUUCUACAGUCCGACGAUCCAAGGAAGGUAUCACACUCCUGUCCCCAAAUAAUUUUUUCAUAAGUUAAUCAUGACUUCUUAAGGGCAAAACUAUAAUGGAUAGCUGAGUAAGACUAGUGCUGAAAACUGGACAGAAGGACAACAGAGGAUUGAGCAUCA"}, "B10": {"name": "chr11:77336104:77336105:-_ENSG00000074201_ENST00000525064|hu_mus|hu_hu_hu_mus_False|28_78 (ssRNA)", "RNA": "GGGAGUUCUACAGUCCGACGAUCCUCACACAUUGCUGUGAACAUCGCCUCCAAUGCUGAUUUAUCACUGGGCACAAAUCGAAAUUCAGAAAUGGGUUCAACAUCAUCAUCACUGUCCUCAUCUUCAUCAGAGAGAGGUUCUUUCAACAGAGGAUUGAGCAUCA"}, "B11": {"name": "chr2:172809444:172809445:+_ENSG00000128708_ENST00000264108|hu_hu|FALSE|FALSE (ssRNA)", "RNA": "GGGAGUUCUACAGUCCGACGAUCCUCAUCAACUUUAGAUGCAUAUUCAACACGGAACAUUGUUGACAGGCUACCAGCAAUAUAGUAUAACAGGAUCUUUAGACCCUUGUAACCAAAAGCAGUUUCAUCAUCCCCAAAGAGUUGCAACAGAGGAUUGAGCAUCA"}, "B12": {"name": "chr5:128448638:128448639:+_ENSG00000066583_ENST00000173527|hu_mus|hu_hu_hu_mus_False|18_78 (ssRNA)", "RNA": "GGGAGUUCUACAGUCCGACGAUCGGCACUCGCCUUAAUUAGGUUCUGAAUUUCCUUGAAUUUUGGAUGGUCUUUGUCAGCCACCAGCUGUAGGAGGACAGCCUCACUAGUGGUCACUAUGAUCCCGGUGCGGGCAAGACGCUCCAACAGAGGAUUGAGCAUCA"}, "B13": {"name": "chr11:4127340:4127341:+_ENSG00000167325_ENST00000300738|hu_mus|hu_hu_hu_mus_False|78_88 (ssRNA)", "RNA": "GGGAGUUCUACAGUCCGACGAUCGGCAUAGUCAGGGUGCUUCGUGGUCAAGGUUGCAGCUGUUUCAGCAGCCAGGGUGUCCAGUUCCACUGUGGUGACCCCACUAUAUAGGCCUUGGAUUACUUUCAUGGUGAUCUGAGCAGGCAACAGAGGAUUGAGCAUCA"}, "B14": {"name": "chr12:39763582:39763583:-_ENSG00000139116_ENST00000544797|hu_mus|hu_hu_hu_mus_False|88_108 (ssRNA)", "RNA": "GGGAGUUCUACAGUCCGACGAUCCUCUAAGAAUUGGGCAUUCACUUUAAAAUCUGGAGGGGGCAGCCCGUUUUUAAUCGCUGAGGUCUUUUUCUCAUCAAUACUCUUGAACAGGUGUCUAACAGCACGAGAGAUGAUGCCCUGCAACAGAGGAUUGAGCAUCA"}, "B15": {"name": "chr4:25749455:25749456:-_ENSG00000091490_ENST00000264868|hu_hu|hu_hu_hu_mus_False|58_58 (ssRNA)", "RNA": "GGGAGUUCUACAGUCCGACGAUCGCACUAUGACCUCUAGAAAAAUCCACAGGGGGAAAAAAUGUAAACCAAUGUACAAAGCUAUUGCCUUCCCUGUGUGUGGAGUGUUUGUCUCAAGGCUCCUUCUAGCUGCUGGAUUUGGGACAACAGAGGAUUGAGCAUCA"}, "B16": {"name": "chr8:107054336:107054337:-_ENSMUSG00000031878_ENSMUST00000034349|mus_hu|FALSE|FALSE (ssRNA)", "RNA": "GGGAGUUCUACAGUCCGACGAUCCGAACCAAUACCUGGUAGUACCAAGUUUUUAAGAAUUUCAGUUCCUGUGGCUGUUGCAUUUAUUAGGCAAACAUGAGCAGAUUCUAAAGCCUCUUGCCCAUGAUCACCCCACAACCUCAGCAACAGAGGAUUGAGCAUCA"}, "B17": {"name": "chr4:13604834:13604835:-_ENSG00000038219_ENST00000040738|hu_hu|motif|central (ssRNA)", "RNA": "GGGAGUUCUACAGUCCGACGAUCACUCAGUAACAUUCUAUGAACAGUUUCAGAAUCUAUAUUCACUUCAGUAGUUCCUCGGUGAAUGGGUUCUUUCUCCCCAGGGUUCAUUUUGGACACAGCACUUUGUAUAUGCAUUUUCUUCAACAGAGGAUUGAGCAUCA"}, "B18": {"name": "31413778_31421566_244_CDS_ENSG00000101367_ENST00000375571|human|control|control (ssRNA)", "RNA": "GGGAGUUCUACAGUCCGACGAUCGGAGCCAGGGAACAGCAUGUCCAUAAACUGACAAUACGCAGCCCCUGAGCACAACUGUUCGAUCUUUGUCAGAUUCAACUGCAGAGACUCAUUGAUCCAGGCCAGCAUGUCAUGUCGACUCAACAGAGGAUUGAGCAUCA"}, "B19": {"name": "chr8:81716360:81716361:+_ENSMUSG00000071064_ENSMUST00000098614|mus_mus|motif|central (ssRNA)", "RNA": "GGGAGUUCUACAGUCCGACGAUCCUAAGCAGGCCCCUCAUCCACGGCUGGAUGUCAGGUGGGGAGGGAAGCAGGGCCCUGCGGGGUUUGGAGAGGGAGGCUGCGAAGGUAUAAGGAGCUGAUGAUGUGGACUGUUCAGUCUCUCAACAGAGGAUUGAGCAUCA"}, "B20": {"name": "chr17:45747064:45747065:+_ENSG00000108424_ENST00000290158|hu_hu|motif|central (ssRNA)", "RNA": "GGGAGUUCUACAGUCCGACGAUCGCCUACAGUCCAUGCAGCUGUAUCUCGAACAACUACACUGGGGUCUUUCAUUAAUUCGGUUAGGGUGGGCAUAGCCUGUAUAACUAGUGGUUUGAGCUGACUGGGCUCUGGUCCUUCCAACAACAGAGGAUUGAGCAUCA"}, "B21": {"name": "chr11:74329583:74329584:+_ENSG00000077514_ENST00000263681|hu_mus|motif|central (ssRNA)", "RNA": "GGGAGUUCUACAGUCCGACGAUCGGAAGAUGGGGAUUCUGCAGGAGCUCUGGGGACUGCAGCUGCACACUGUAUGGCACGGAACUUGCUGCAGUUCUGCAAAUUGCUUUUAAGGAUGUCAUAGUCGGUAUUGAACAGAGGCCCCAACAGAGGAUUGAGCAUCA"}, "B22": {"name": "chrX:140365796:140365797:-_ENSMUSG00000031285_ENSMUST00000033642|mus_mus|mus_mus_mus_hu_False|18_108 (ssRNA)", "RNA": "GGGAGUUCUACAGUCCGACGAUCCUUCUCAUUACUUAGUGCCUGCAAGGUUCUGGUUCGGUAGAAGCUACAGUGGGCGCUGUGAGUGGGGCUAGGCAACCCAUUCAUCCGGGAGCCUCUCAUAUUUCUGGAUGUCUUAUCUCUCAACAGAGGAUUGAGCAUCA"}},
  "note": "The list shows a part of the results.",
  "data": [
    {"target": "T1, UNK ZnF1-3 (human, UniProt Q9C0B0 31-174)", "T1 sequence": "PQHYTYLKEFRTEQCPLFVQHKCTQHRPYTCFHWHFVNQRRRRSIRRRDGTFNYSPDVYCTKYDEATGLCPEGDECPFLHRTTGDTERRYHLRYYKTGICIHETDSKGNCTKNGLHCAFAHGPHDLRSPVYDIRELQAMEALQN", "experiment": "nsRBNS (natural sequence RNA bind-n-seq); RBNS binding buffer (assumed for nsRBNS): 25 mM Tris pH 7.5, 150 mM KCl, 3 mM MgCl2, 0.01% Triton X-100, 500 ug/ml BSA, 20 U/ml SUPERase-In, 4 C; UNK is unkempt and MSI1 is Musashi-1; names of the RNAs are library labels; protein concentration not given here; high values mean tight binding", "units": {"binding signal": "enrichment R"}, "values": [
      {"binder": "B1", "binding signal": 0.593},
      {"binder": "B2", "binding signal": 0.69},
      {"binder": "B3", "binding signal": 2.79},
      {"binder": "B4", "binding signal": 1.57},
      {"binder": "B5", "binding signal": 1.21},
      {"binder": "B6", "binding signal": 0.427},
      {"binder": "B7", "binding signal": 1.67},
      {"binder": "B8", "binding signal": 0.825},
      {"binder": "B9", "binding signal": 1.29},
      {"binder": "B10", "binding signal": 1.06},
      {"binder": "B11", "binding signal": 1.22},
      {"binder": "B12", "binding signal": 0.654},
      {"binder": "B13", "binding signal": 1.03},
      {"binder": "B14", "binding signal": 1.98},
      {"binder": "B15", "binding signal": 1.14},
      {"binder": "B16", "binding signal": 0.439},
      {"binder": "B17", "binding signal": 0.548},
      {"binder": "B18", "binding signal": 0.942},
      {"binder": "B19", "binding signal": 1.44},
      {"binder": "B20", "binding signal": 0.974},
      {"binder": "B21", "binding signal": 0.806},
      {"binder": "B22", "binding signal": 0.83}
    ]}
  ]
}
